The list shows a part of the results. Rule as the data show it: active = 3.2 or more and inactive = the rest. Only a few entries rise above the background.
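Also: displayed peptides selected on beads carrying the immobilized SH2 domain, with library peptides lacking any tyrosine serving as negative controls.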

The first assay has as its target SHP2 C-SH2 domain E139D. The assay can be described thus: enrichment score (SH2-bound / input frequency) (ratio); bacterial display of known human phosphotyrosine sites (pTyr-Var adds point mutants) read by sequencing; higher = stronger binding; tyrosines were phosphorylated by kinases first. As to conditions: peptide library: Human pTyr.
As to AHAWPSPYKDYEVKK [RAI3_HUMAN_347], the enrichment score is inactive: 0.671.

For EETGDTLYAPASTHF [RAI3_HUMAN_317_YA], the enrichment score was inactive: 0.703.

Turning to NYRKVHPYEDSDSSE [RIOK3_HUMAN_122], the enrichment score is inactive: 0.882.

Take KPAQDPLYDVPNASG [RIN1_HUMAN_36]: the enrichment score is inactive: 0.891.

DRRFRGRYRSPASGP [RBM39_HUMAN_95_YA]: the enrichment score is inactive: 0.586.

For AQREGAKYVSHGATG [ASSY_HUMAN_113], the enrichment score is inactive: 0.809.

GDTLAAPYSTHFQLQ [RAI3_HUMAN_320_YA]: the enrichment score was inactive: 0.725.

As to DLNNGKFYVGVCAFV [RAD52_HUMAN_104], the enrichment score was inactive: 2.02.

For GGNYRDNYDNGGGGG [RBM3_HUMAN_155], the enrichment score was inactive: 0.784.

With DPKSYEAYVLNIVRF [AT1B1_HUMAN_101], the enrichment score was inactive: 1.59.

With MAVRIQAYDYLECSA [RHOB_HUMAN_154], the enrichment score was inactive: 1.74.

In the case of FAAKMPRYRGAALAR [ASAP3_HUMAN_34], the enrichment score is inactive: 0.815.

Take SRKVGPGYLGSGGSR [RET_HUMAN_826]: the enrichment score was inactive: 0.901.

Take AQAFPVSYSSSGARR [RET_HUMAN_687]: the enrichment score was inactive: 0.538.

Turning to AHAWPSPYKDAEVKK [RAI3_HUMAN_347_YA], the enrichment score was inactive: 1.45.

Regarding SKMQQNGYENPTYKF [A4_HUMAN_757], the enrichment score was inactive: 0.964.

MAVRIQAYDALECSA [RHOB_HUMAN_154_YA]: the enrichment score was inactive: 1.54.

Consider SANGHVSYSAVSREN [PVR_HUMAN_398], for which the enrichment score is inactive: 2.11.

Another assay deals with SHP2 C-SH2 domain wild-type. Described as above. The note with it: peptide library: Human pTyr.
Turning to AHAWPSPYKDYEVKK [RAI3_HUMAN_347], the enrichment score was inactive: 0.889.

As for EETGDTLYAPASTHF [RAI3_HUMAN_317_YA], the enrichment score is inactive: 0.488.

NYRKVHPYEDSDSSE [RIOK3_HUMAN_122]: the enrichment score was inactive: 0.801.

Turning to KPAQDPLYDVPNASG [RIN1_HUMAN_36], the enrichment score is inactive: 0.627.

Turning to DRRFRGRYRSPASGP [RBM39_HUMAN_95_YA], the enrichment score is inactive: 0.65.

Regarding AQREGAKYVSHGATG [ASSY_HUMAN_113], the enrichment score is inactive: 0.672.

As for GDTLAAPYSTHFQLQ [RAI3_HUMAN_320_YA], the enrichment score was inactive: 0.667.

Turning to DLNNGKFYVGVCAFV [RAD52_HUMAN_104], the enrichment score is inactive: 1.57.

For the molecule GGNYRDNYDNGGGGG [RBM3_HUMAN_155], the enrichment score was inactive: 0.565.

Take DPKSYEAYVLNIVRF [AT1B1_HUMAN_101]: the enrichment score is inactive: 1.45.

As to MAVRIQAYDYLECSA [RHOB_HUMAN_154], the enrichment score is inactive: 1.87.

Consider FAAKMPRYRGAALAR [ASAP3_HUMAN_34], for which the enrichment score was inactive: 0.889.

For SRKVGPGYLGSGGSR [RET_HUMAN_826], the enrichment score was inactive: 0.644.

On to AQAFPVSYSSSGARR [RET_HUMAN_687], for which the enrichment score is inactive: 0.513.

For AHAWPSPYKDAEVKK [RAI3_HUMAN_347_YA], the enrichment score was inactive: 1.32.

Regarding SKMQQNGYENPTYKF [A4_HUMAN_757], the enrichment score was inactive: 0.991.

MAVRIQAYDALECSA [RHOB_HUMAN_154_YA]: the enrichment score is inactive: 1.04.

With SANGHVSYSAVSREN [PVR_HUMAN_398], the enrichment score was active: 5.71.

The target of a further assay is SHP2 N-SH2 domain L43F. The assay is described as above. As to conditions: peptide library: Human pTyr.
AHAWPSPYKDYEVKK [RAI3_HUMAN_347]: the enrichment score is inactive: 1.

Turning to EETGDTLYAPASTHF [RAI3_HUMAN_317_YA], the enrichment score was inactive: 0.712.

Regarding NYRKVHPYEDSDSSE [RIOK3_HUMAN_122], the enrichment score is inactive: 0.662.

With KPAQDPLYDVPNASG [RIN1_HUMAN_36], the enrichment score was inactive: 0.909.

As to DRRFRGRYRSPASGP [RBM39_HUMAN_95_YA], the enrichment score was inactive: 0.633.

With AQREGAKYVSHGATG [ASSY_HUMAN_113], the enrichment score was inactive: 0.726.

With GDTLAAPYSTHFQLQ [RAI3_HUMAN_320_YA], the enrichment score is inactive: 0.548.

With DLNNGKFYVGVCAFV [RAD52_HUMAN_104], the enrichment score was inactive: 1.38.

With GGNYRDNYDNGGGGG [RBM3_HUMAN_155], the enrichment score was inactive: 0.77.

Take DPKSYEAYVLNIVRF [AT1B1_HUMAN_101]: the enrichment score was inactive: 1.57.

For MAVRIQAYDYLECSA [RHOB_HUMAN_154], the enrichment score was inactive: 1.24.

In the case of FAAKMPRYRGAALAR [ASAP3_HUMAN_34], the enrichment score was inactive: 1.08.

As to SRKVGPGYLGSGGSR [RET_HUMAN_826], the enrichment score was inactive: 0.988.

As to AQAFPVSYSSSGARR [RET_HUMAN_687], the enrichment score was inactive: 0.615.

As for AHAWPSPYKDAEVKK [RAI3_HUMAN_347_YA], the enrichment score is inactive: 1.29.

For the molecule SKMQQNGYENPTYKF [A4_HUMAN_757], the enrichment score is inactive: 0.893.

Consider MAVRIQAYDALECSA [RHOB_HUMAN_154_YA], for which the enrichment score is inactive: 1.36.

For the molecule SANGHVSYSAVSREN [PVR_HUMAN_398], the enrichment score was inactive: 0.794.

For the next assay, the target named is SHP2 N-SH2 domain T42A. The assay is described as above. The note with it: peptide library: Human pTyr.
Consider AHAWPSPYKDYEVKK [RAI3_HUMAN_347], for which the enrichment score is inactive: 0.927.

For the molecule EETGDTLYAPASTHF [RAI3_HUMAN_317_YA], the enrichment score is inactive: 0.655.

For NYRKVHPYEDSDSSE [RIOK3_HUMAN_122], the enrichment score was inactive: 0.964.

Turning to KPAQDPLYDVPNASG [RIN1_HUMAN_36], the enrichment score is inactive: 0.747.

Take DRRFRGRYRSPASGP [RBM39_HUMAN_95_YA]: the enrichment score was inactive: 0.752.

On to AQREGAKYVSHGATG [ASSY_HUMAN_113], for which the enrichment score was inactive: 0.702.

On to GDTLAAPYSTHFQLQ [RAI3_HUMAN_320_YA], for which the enrichment score was inactive: 0.503.

As to DLNNGKFYVGVCAFV [RAD52_HUMAN_104], the enrichment score was inactive: 1.66.

In the case of GGNYRDNYDNGGGGG [RBM3_HUMAN_155], the enrichment score was inactive: 0.492.

For the molecule DPKSYEAYVLNIVRF [AT1B1_HUMAN_101], the enrichment score is inactive: 1.58.

As for MAVRIQAYDYLECSA [RHOB_HUMAN_154], the enrichment score is inactive: 1.67.

In the case of FAAKMPRYRGAALAR [ASAP3_HUMAN_34], the enrichment score was inactive: 0.825.

For SRKVGPGYLGSGGSR [RET_HUMAN_826], the enrichment score was inactive: 0.682.

On to AQAFPVSYSSSGARR [RET_HUMAN_687], for which the enrichment score is inactive: 0.505.

AHAWPSPYKDAEVKK [RAI3_HUMAN_347_YA]: the enrichment score was inactive: 0.959.

Turning to SKMQQNGYENPTYKF [A4_HUMAN_757], the enrichment score was inactive: 0.826.

Regarding MAVRIQAYDALECSA [RHOB_HUMAN_154_YA], the enrichment score was inactive: 1.18.

Take SANGHVSYSAVSREN [PVR_HUMAN_398]: the enrichment score is inactive: 0.871.

The next assay deals with SHP2 N-SH2 domain T52S. The assay is described as above. As to conditions: peptide library: Human pTyr.
As for AHAWPSPYKDYEVKK [RAI3_HUMAN_347], the enrichment score was inactive: 0.943.

Turning to EETGDTLYAPASTHF [RAI3_HUMAN_317_YA], the enrichment score was inactive: 0.742.

As to NYRKVHPYEDSDSSE [RIOK3_HUMAN_122], the enrichment score was inactive: 1.05.

Turning to KPAQDPLYDVPNASG [RIN1_HUMAN_36], the enrichment score is inactive: 0.716.

DRRFRGRYRSPASGP [RBM39_HUMAN_95_YA]: the enrichment score is inactive: 0.471.

Regarding AQREGAKYVSHGATG [ASSY_HUMAN_113], the enrichment score was inactive: 0.682.

On to GDTLAAPYSTHFQLQ [RAI3_HUMAN_320_YA], for which the enrichment score is inactive: 0.614.

Consider DLNNGKFYVGVCAFV [RAD52_HUMAN_104], for which the enrichment score is inactive: 1.44.

With GGNYRDNYDNGGGGG [RBM3_HUMAN_155], the enrichment score was inactive: 0.748.

With DPKSYEAYVLNIVRF [AT1B1_HUMAN_101], the enrichment score is inactive: 1.58.

For MAVRIQAYDYLECSA [RHOB_HUMAN_154], the enrichment score was inactive: 1.5.

On to FAAKMPRYRGAALAR [ASAP3_HUMAN_34], for which the enrichment score was inactive: 0.944.

Turning to SRKVGPGYLGSGGSR [RET_HUMAN_826], the enrichment score is inactive: 0.589.

On to AQAFPVSYSSSGARR [RET_HUMAN_687], for which the enrichment score is inactive: 0.816.

As to AHAWPSPYKDAEVKK [RAI3_HUMAN_347_YA], the enrichment score was inactive: 1.44.

With SKMQQNGYENPTYKF [A4_HUMAN_757], the enrichment score is inactive: 0.927.

With MAVRIQAYDALECSA [RHOB_HUMAN_154_YA], the enrichment score was inactive: 1.34.

Regarding SANGHVSYSAVSREN [PVR_HUMAN_398], the enrichment score is inactive: 0.535.

Another assay concerns the target SHP2 N-SH2 domain wild-type. The description is as above. The note with it: peptide library: Human pTyr.
Consider AHAWPSPYKDYEVKK [RAI3_HUMAN_347], for which the enrichment score is inactive: 0.963.

For the molecule EETGDTLYAPASTHF [RAI3_HUMAN_317_YA], the enrichment score is inactive: 0.718.

Turning to NYRKVHPYEDSDSSE [RIOK3_HUMAN_122], the enrichment score is inactive: 1.16.

Turning to KPAQDPLYDVPNASG [RIN1_HUMAN_36], the enrichment score is inactive: 0.824.

With DRRFRGRYRSPASGP [RBM39_HUMAN_95_YA], the enrichment score was inactive: 0.562.

Take AQREGAKYVSHGATG [ASSY_HUMAN_113]: the enrichment score was inactive: 0.831.

As to GDTLAAPYSTHFQLQ [RAI3_HUMAN_320_YA], the enrichment score is inactive: 0.582.

Turning to DLNNGKFYVGVCAFV [RAD52_HUMAN_104], the enrichment score was inactive: 2.27.

For GGNYRDNYDNGGGGG [RBM3_HUMAN_155], the enrichment score was inactive: 0.691.

Consider DPKSYEAYVLNIVRF [AT1B1_HUMAN_101], for which the enrichment score was inactive: 1.71.

Take MAVRIQAYDYLECSA [RHOB_HUMAN_154]: the enrichment score was inactive: 1.72.

Take FAAKMPRYRGAALAR [ASAP3_HUMAN_34]: the enrichment score is inactive: 0.897.

Take SRKVGPGYLGSGGSR [RET_HUMAN_826]: the enrichment score is inactive: 0.815.

For the molecule AQAFPVSYSSSGARR [RET_HUMAN_687], the enrichment score is inactive: 0.812.

Consider AHAWPSPYKDAEVKK [RAI3_HUMAN_347_YA], for which the enrichment score is inactive: 1.33.

Consider SKMQQNGYENPTYKF [A4_HUMAN_757], for which the enrichment score was inactive: 1.24.

Take MAVRIQAYDALECSA [RHOB_HUMAN_154_YA]: the enrichment score is inactive: 1.43.

Take SANGHVSYSAVSREN [PVR_HUMAN_398]: the enrichment score was inactive: 0.643.
